The target of this experiment is GTPase KRas (Homo sapiens) (UniProt P01116). Kind of experiment: Covalent labelling of cysteine mutants by fragments, read by mass spectrometry (AID 2202238). More on the design: protein at 5 µM with 500 µM competing thiol for 1.5 h. To be noted: KRAS G12D cysteine mutants, disulfide tethering, MALDI-TOF labeling, stronger effect = higher value, fragment at 500 µM.
The mark [1] stands for this setting: measured here: G60C mutant labeling.
[2] abbreviates: measured here: G75C mutant labeling.
Where [3] appears, read: measured here: H94C mutant labeling.
The mark [4] stands for this setting: measured here: I36C mutant labeling.
[5] abbreviates: measured here: L120C mutant labeling.
The mark [6] stands for this setting: measured here: M67C mutant labeling.
The mark [7] stands for this setting: measured here: M72C mutant labeling.
[8] abbreviates: measured here: N26C mutant labeling.
[9] abbreviates: measured here: N86C mutant labeling.
The mark [10] stands for this setting: measured here: P121C mutant labeling.
Where [11] appears, read: measured here: S122C mutant labeling.
Where [12] appears, read: measured here: S136C mutant labeling.

This is one part of the list. These are further read-outs of the screen, such as a control signal, another cell line or another target. No call is given for them.

Sequence of UniProt P01116 (P01116 whole entry, looked up, the tested form may be a part): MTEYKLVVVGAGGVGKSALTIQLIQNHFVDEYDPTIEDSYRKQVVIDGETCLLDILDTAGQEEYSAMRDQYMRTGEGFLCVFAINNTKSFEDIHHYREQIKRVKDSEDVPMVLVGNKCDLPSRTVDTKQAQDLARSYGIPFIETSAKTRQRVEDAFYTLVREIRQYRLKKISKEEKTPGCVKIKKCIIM

For the molecule `CCOc1cc(C#N)cc(Br)c1OCC(=O)NCCS`, the percent labeling under setting [1] was found to be 26.2%; the percent labeling under setting [2] was found to be 10.5%; the percent labeling under setting [3] was 12.7%; the percent labeling under setting [4] came to 6.5%; the percent labeling under setting [5] came out at 8.5%; the percent labeling under setting [6] worked out at 8.1%. Besides, the percent labeling is, setting by setting: under setting [7], 20%; under setting [8], 20.5%; under setting [9], 7%; under setting [10], 7.3%; under setting [11], 5%; under setting [12], 16.6%.
With `Cn1ncc2nc(C(F)F)c(NC(=O)CCS)cc21`, the percent labeling runs as follows: under setting [2], 17.9%; under setting [3], 32.4%; under setting [4], 44.3%; under setting [5], 27.8%; under setting [6], 35.5%; under setting [7], 41.4%. Further, the percent labeling was 38.1% under setting [9], 27.6% under setting [10], 30.5% under setting [11] and 52.2% under setting [12].
Turning to `O=C(NCCS)C1CN(C(=O)C2CCCCC2)C1`, the percent labeling runs as follows: under setting [1], 25.2%; under setting [2], 14.1%; under setting [3], 27.7%; under setting [4], 24.5%; under setting [5], 38.4%; under setting [6], 26.4%. This molecule also displayed a percent labeling under setting [7] of 15.6%; a percent labeling under setting [8] of 33.7%; a percent labeling under setting [9] of 21%; a percent labeling under setting [10] of 30.7%; a percent labeling under setting [11] of 30.6%; a percent labeling under setting [12] of 42.1%.
In the case of `Cc1noc(CC2(NC(=O)CCS)CC2)n1`, the percent labeling runs as follows: under setting [2], 0%; under setting [3], 21.9%; under setting [4], 33.4%; under setting [5], 14.4%; under setting [6], 27.4%; under setting [7], 8.8%. Further, the percent labeling reads like this: under setting [9], 18.2%; under setting [10], 30.4%; under setting [11], 32%; under setting [12], 40.4%.
Turning to `O=C(NCCS)c1cccc(Nc2ncnc3ccccc23)c1`, the percent labeling reads like this: under setting [1], 12.7%; under setting [2], 8%; under setting [3], 9.8%; under setting [4], 9%; under setting [5], 8%; under setting [6], 11.1%. For the same molecule, the percent labeling is, setting by setting: under setting [7], 23.1%; under setting [8], 33.7%; under setting [9], 8.1%; under setting [10], 7.3%; under setting [11], 4.2%; under setting [12], 13.1%.
On to `O=C(CCS)NCc1ccnn1C1CCCCC1`, for which the percent labeling under setting [2] turned out to be 21.4%; the percent labeling under setting [3] was 40.1%; the percent labeling under setting [4] is 35.1%; the percent labeling under setting [5] came to 27.2%; the percent labeling under setting [6] turned out to be 38.4%; the percent labeling under setting [7] was determined as 26.7%. Also, the percent labeling reads like this: under setting [9], 25.9%; under setting [10], 35.7%; under setting [11], 37.6%; under setting [12], 57.2%.
Turning to `Cc1nc2cc(F)c(F)cc2n1CC(=O)NCCS`, the percent labeling reads like this: under setting [1], 48.3%; under setting [2], 21.5%; under setting [3], 36%; under setting [4], 36.7%; under setting [5], 47.7%; under setting [6], 36.1%. Also, the percent labeling was found to be 56.8% under setting [7]; 45.5% under setting [8]; 29.8% under setting [9]; 30.5% under setting [10]; 28.1% under setting [11]; 40.6% under setting [12].
Regarding `O=C(NCCS)C1CC12CCc1cc(Br)ccc12` (stereo unspecified), the percent labeling amounted to 45.3% under setting [1]; 28.1% under setting [2]; 25.8% under setting [3]; 12.4% under setting [4]; 15.5% under setting [5]; 10.5% under setting [6]. Moreover, the percent labeling runs as follows: under setting [7], 33.2%; under setting [8], 29.3%; under setting [9], 11.7%; under setting [10], 27.6%; under setting [11], 6%; under setting [12], 15.6%.
Turning to `Cn1nc(C(=O)NCCS)cc1-c1ccc(Cl)cc1`, the percent labeling by setting is: under setting [1], 18.3%; under setting [2], 9.2%; under setting [3], 11.5%; under setting [4], 8.9%; under setting [5], 15.5%; under setting [6], 10.6%. The percent labeling is, setting by setting: under setting [7], 40.5%; under setting [8], 26.4%; under setting [9], 12%; under setting [10], 12%; under setting [11], 9.4%; under setting [12], 16.5%.
As to `CCn1cccc(CNC(=O)CCS)c1=O`, the percent labeling is, setting by setting: under setting [2], 11.4%; under setting [3], 28%; under setting [4], 37.4%; under setting [5], 28.5%; under setting [6], 33.8%; under setting [7], 17.4%. In addition, the percent labeling reads like this: under setting [9], 25.6%; under setting [10], 34.7%; under setting [11], 34.3%; under setting [12], 53.7%.
Consider `COc1cc2c(cc1OC)CN(CC(=O)NCCS)CC2`, for which the percent labeling is, setting by setting: under setting [1], 44.8%; under setting [2], 20.7%; under setting [3], 36.9%; under setting [4], 36.7%; under setting [5], 52.6%; under setting [6], 37.7%. Also, the percent labeling turned out to be 35.2% under setting [7]; 41.4% under setting [8]; 23.1% under setting [9]; 30.9% under setting [10]; 23.7% under setting [11]; 47.6% under setting [12].
On to `O=C(NCCS)C1CCN1C1CCCC1` (stereo unspecified), for which the percent labeling runs as follows: under setting [1], 37.2%; under setting [2], 22.4%; under setting [3], 39.4%; under setting [4], 29.6%; under setting [5], 26.2%; under setting [6], 31.3%. In addition, the percent labeling is, setting by setting: under setting [7], 23.3%; under setting [8], 34.7%; under setting [9], 24.8%; under setting [10], 26%; under setting [11], 26.5%; under setting [12], 41.8%.
Take `CC1(C(=O)NCCS)CCCN(C(=O)c2ccccc2)C1` (stereo unspecified): the percent labeling reads like this: under setting [1], 38.9%; under setting [2], 16.4%; under setting [3], 44.7%; under setting [4], 30.5%; under setting [5], 37.2%; under setting [6], 43.3%. The percent labeling reads like this: under setting [7], 35.9%; under setting [8], 38.7%; under setting [9], 28.9%; under setting [10], 35.5%; under setting [11], 35.5%; under setting [12], 56.1%.
Take `COc1cc(N2CCN(C(=O)CCS)CC2)ccc1O`: the percent labeling by setting is: under setting [2], 22%; under setting [3], 14.9%; under setting [4], 19.2%; under setting [5], 12.4%; under setting [6], 16.3%; under setting [7], 4.9%. For the same molecule, the percent labeling runs as follows: under setting [9], 18.8%; under setting [10], 20.8%; under setting [11], 14.7%; under setting [12], 56.8%.
With `COc1ccc2c(c1)CCC(C(=O)NCCS)C2` (stereo unspecified), the percent labeling by setting is: under setting [1], 37.6%; under setting [2], 12.7%; under setting [3], 18.8%; under setting [4], 14.9%; under setting [5], 14.6%; under setting [6], 17.4%. For the same molecule, the percent labeling was found to be 32% under setting [7]; 36.9% under setting [8]; 16.8% under setting [9]; 18.3% under setting [10]; 14.9% under setting [11]; 25.5% under setting [12].
Turning to `N#Cc1cc2c([nH]c1=O)CCN(C(=O)CCS)C2`, the percent labeling was found to be 11.6% under setting [2]; 25.6% under setting [3]; 44.4% under setting [4]; 28.9% under setting [5]; 34.5% under setting [6]; 24.3% under setting [7]. Besides, the percent labeling under setting [9] is 31.4%, the percent labeling under setting [10] came to 28.9%, the percent labeling under setting [11] was 33.6% and the percent labeling under setting [12] is 61.7%.
Take `COc1cc2ccccc2c(NC(=O)CCS)n1`: the percent labeling by setting is: under setting [2], 17.3%; under setting [3], 20.1%; under setting [4], 15.1%; under setting [5], 11.8%; under setting [6], 8.4%; under setting [7], 54.6%. In addition, the percent labeling was 14.8% under setting [9], 13.7% under setting [10], 7.9% under setting [11] and 33.9% under setting [12].
Consider `CCc1cc(OC)c(CC2(NC(=O)CCS)CC2)cc1OC`, for which the percent labeling is, setting by setting: under setting [2], 11.7%; under setting [3], 27.6%; under setting [4], 25.1%; under setting [5], 14.6%; under setting [6], 26.1%; under setting [7], 27.3%. In addition, the percent labeling is 19.7% under setting [9], 20.5% under setting [10], 16.5% under setting [11] and 42.6% under setting [12].
Consider `O=C(NCCS)C1CC=CCC1C(=O)NC1CC1` (stereo unspecified), for which the percent labeling reads like this: under setting [1], 21.3%; under setting [2], 6.9%; under setting [3], 24.3%; under setting [4], 14.4%; under setting [5], 30.3%; under setting [6], 16.7%. Further, the percent labeling is, setting by setting: under setting [7], 11.1%; under setting [8], 21.9%; under setting [9], 19.4%; under setting [10], 25.8%; under setting [11], 22.3%; under setting [12], 29.7%.
In the case of `O=C(Nc1ccc(F)cc1)NC1CCN(C(=O)CCS)CC1`, the percent labeling worked out at 10.1% under setting [2]; 24.9% under setting [3]; 34.1% under setting [4]; 18.6% under setting [5]; 28.7% under setting [6]; 17.9% under setting [7]. Moreover, the percent labeling is, setting by setting: under setting [9], 17.6%; under setting [10], 20.9%; under setting [11], 20.6%; under setting [12], 37.8%.
On to `CC1(CC2CCCN2C(=O)CCS)NC(=O)NC1=O` (stereo unspecified), for which the percent labeling under setting [2] was 8.5%; the percent labeling under setting [3] worked out at 35.1%; the percent labeling under setting [4] stood at 34.7%; the percent labeling under setting [5] is 29.6%; the percent labeling under setting [6] stood at 40.5%; the percent labeling under setting [7] came out at 15.3%. The percent labeling was found to be 31.8% under setting [9], 31.7% under setting [10], 38.4% under setting [11] and 57.7% under setting [12].
The molecule `O=C1CC(C(=O)NCCS)c2ccc(F)cc2N1` (stereo unspecified) gave a percent labeling under setting [1] of 50.5%; a percent labeling under setting [2] of 19.6%; a percent labeling under setting [3] of 40.7%; a percent labeling under setting [4] of 32.6%; a percent labeling under setting [5] of 48.6%; a percent labeling under setting [6] of 35.6%. The percent labeling was determined as 39% under setting [7]; 44.3% under setting [8]; 28.6% under setting [9]; 33.3% under setting [10]; 34.7% under setting [11]; 44.7% under setting [12].
Molecule `COc1ccc(CCC(=O)NCCS)cc1Cl` showed a percent labeling under setting [1] of 50.4%; a percent labeling under setting [2] of 16.8%; a percent labeling under setting [3] of 21.5%; a percent labeling under setting [4] of 23.6%; a percent labeling under setting [5] of 27.6%; a percent labeling under setting [6] of 24.7%. In addition, the percent labeling under setting [7] amounted to 37.3%; the percent labeling under setting [8] is 35.2%; the percent labeling under setting [9] came to 17.3%; the percent labeling under setting [10] turned out to be 25.5%; the percent labeling under setting [11] was 20.7%; the percent labeling under setting [12] was determined as 31.6%.

The values above are taken from PubChem BioAssay AID2202238 (Ras Initiative Chemistry Research Team, Frederick National …, 2025).
